Source: the supplement of paper PMC4723716
± gives the standard deviation of the averaged measurements. In all, about 3,600 compounds were measured (“viability index relative to DMSO control”: median about 0.81, lowest 2% from about 0.13 on). Some of the results follow.

Tested on: Plasmodium falciparum NF54 stage V gametocytes
Test: viability index relative to DMSO control (fraction); higher = less gametocyte killing
Conditions: 1.25 µM, incubation time: 72 h
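Further: 384-well serum-free SaLSSA: MitoTracker Red CMXRos staining with saponin lysis, high-content imaging, treated-well particle count divided by plate-mean count of DMSO wells.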

For CCc1nc(N)nc(N)c1-c1ccc(Cl)cc1, which viability index is on record?
The viability index was 0.462.

Which viability index does the source give for Cc1cc(C=C2SC(=Nc3ccccc3)NC2=O)c(C)n1-c1cccc([N+](=O)[O-])c1 here?
The viability index was 0.479.

Which viability index does the source give for COc1ccc2c(c1)c(C)cc[n+]2Cc1ccccc1 here?
Its viability index is 0.828.

How did the viability index turn out when N=c1c2c(n(Cc3ccc(Cl)cc3)c3c1CCC3)CCC2 was run?
The viability index was 0.493.

For COc1ccc(CCN2C(=O)N(CC(C)C)C(=O)C23CCN(Cc2ccccc2O)CC3)cc1, which viability index is on record?
Its viability index is 0.952.

CCC(C)(C)c1ccc(Oc2ccc(NC(=O)c3ccc([N+](=O)[O-])o3)cc2)cc1 was tested. Which viability index did it give?
Its viability index is 0.362.

With c1ccc([B-](c2ccccc2)(c2ccccc2)c2ccccc2)cc1 as the compound, how does the viability index read?
Its viability index is 0.695 ± 0.011.

How did the viability index turn out when CCN1CCN(Cc2c(O)ccc3c(=O)c(Oc4cc(C)cc(C)c4)c(C(F)(F)F)oc23)CC1 was run?
Its viability index is 0.606.

For CCOc1ccc2ncc(S(=O)(=O)c3ccc(OC)cc3)c(N3CCN(C)CC3)c2c1, which viability index is on record?
The viability index was 0.855.

Which viability index does the source give for CCC(C)NC(=O)c1nn(-c2cccc(OC)c2)c(=O)c2ccccc12 (centres undefined) here?
The viability index was 1.01.

O=c1c(=Cc2ccc(-c3ccc([N+](=O)[O-])cc3Cl)o2)sc2nc3ccccc3n12 was tested. Which viability index did it give?
The viability index was 0.699.

CN1C(=O)N(C)C2(c3ccccc3)NN3C(=NC12c1ccccc1)SC1=C3C(=O)c2ccccc2C1=O (centres undefined) was tested. Which viability index did it give?
Its viability index is 0.0309.

With CCc1cc2c(Nc3ccncc3)ncnc2s1 as the compound, how does the viability index read?
Its viability index is 0.812.

How did the viability index turn out when Cc1ccc(-[n+]2c(-c3ccccc3)cn3c2CCCCC3)cc1 was run?
Its viability index is 0.812.

CC[n+]1c(C=Cc2ccc(OC)cc2)ccc2ccccc21 was tested. Which viability index did it give?
The viability index was 0.415.

Which viability index does the source give for COc1cc(OC)c(NC(=O)C2c3ccccc3C(=O)N(C)C2c2ccc(OC)c(OC)c2)cc1Cl (centres undefined) here?
The viability index was 0.398.

COc1ccc(C2C(C(=O)Nc3cccc(Cl)c3)c3ccccc3C(=O)N2C2CCCCC2)cc1 (centres undefined) was tested. Which viability index did it give?
Its viability index is 0.719.

With c1ccc(C[n+]2ccc(-c3nc4ccccc4s3)cc2)cc1 as the compound, how does the viability index read?
The viability index was 0.732.

For COc1ccc(NC(=O)c2cc3cc(C4(O)CCN(Cc5cc6ccccc6[nH]5)CC4)ccc3o2)cc1, which viability index is on record?
Its viability index is 0.856.

How did the viability index turn out when O=C(Nc1ccc(-c2nc3cc(NC(=O)C(c4ccccc4)c4ccccc4)ccc3[nH]2)cc1)C(c1ccccc1)c1ccccc1 was run?
Its viability index is 0.908.

Which viability index does the source give for COC(=O)c1c(NC(=O)c2ccc(S(=O)(=O)N3CCOCC3)cc2)sc2c1CCN(C(C)=O)C2 here?
Its viability index is 0.76.

How did the viability index turn out when COc1ccc(C2N(Cc3ccccc3)c3ccccc3N2Cc2ccccc2)cc1 was run?
The viability index was 0.963.

For O=C(CN(CCN1CCOCC1)S(=O)(=O)c1ccccn1)N1CCN(C(c2ccccc2)c2ccccc2)CC1, which viability index is on record?
Its viability index is 0.637.

COc1cc(NC(=O)Cc2ccccc2OC)cc(OC)c1 was tested. Which viability index did it give?
The viability index was 0.873.

COc1ccc(-c2cc(C(F)(F)F)n3ncc(C(=O)Nc4cccc(Cl)c4Cl)c3n2)cc1OC was tested. Which viability index did it give?
Its viability index is 0.783.

For COc1ccc(C2CC(=O)C3=C(C2)NC(C)=C(C(=O)OC2CCCC2)C3c2ccc(F)cc2)cc1OC (centres undefined), which viability index is on record?
Its viability index is 0.382.

OCCCCCCCCCCC[n+]1ccccc1 was tested. Which viability index did it give?
The viability index was 0.779.

CCC(=O)N1CCc2cc(S(=O)(=O)N3CCN(c4cccc(C(F)(F)F)c4)CC3)ccc21 was tested. Which viability index did it give?
Its viability index is 0.932.

With COCCn1nnnc1C(c1cc2cc3c(cc2[nH]c1=O)OCCO3)N1CCC(O)CC1 (centres undefined) as the compound, how does the viability index read?
The viability index was 0.884.

For O=C(NCC1(c2ccccc2)CCCC1)C(=O)Nc1nncs1, which viability index is on record?
Its viability index is 1.16.

How did the viability index turn out when O=C(Nc1cccc(OC(=O)c2ccc([N+](=O)[O-])cc2)c1)c1ccc([N+](=O)[O-])cc1 was run?
Its viability index is 0.842.

With COc1cc(C2CC(=O)NC(C)=C2C(=O)OC(C)C)c(OC)cc1Br (centres undefined) as the compound, how does the viability index read?
The viability index was 0.718.

With COc1ccc2ccccc2c1C1NC(SCc2ccc(F)cc2)=NC(C)=C1C(C)=O (centres undefined) as the compound, how does the viability index read?
Its viability index is 0.679.

For CCOC(=O)C1=C(C)NC2=C(C(=O)CC(c3ccc(Cl)cc3)C2)C1c1ccccc1Cl (centres undefined), which viability index is on record?
Its viability index is 0.774.

Which viability index does the source give for Cc1cc(N2CCN(CC=Cc3ccccc3)CC2)n2c(nc3ccccc32)c1C#N here?
Its viability index is 0.703.

How did the viability index turn out when COc1ccc(S(=O)(=O)ON=C2C=C(C(C)C)C(=O)C=C2C)cc1 was run?
The viability index was 0.584.

For CCN(c1ccc(OC)cc1)S(=O)(=O)c1ccc(C)cc1, which viability index is on record?
Its viability index is 0.857.

For CCN(CC)S(=O)(=O)c1cc(C(=O)O)ccc1Cl, which viability index is on record?
Its viability index is 0.971.

For CCOC(=O)c1nnn(-c2nonc2N)c1-c1ccc(C)cc1, which viability index is on record?
The viability index was 0.618.

O=C(Nc1ccon1)c1cc(-c2cccnc2)nc2ccc(Br)cc12 was tested. Which viability index did it give?
Its viability index is 0.78.

How did the viability index turn out when CCOC(=O)C1=C(C)N(c2ccc(OCC)cc2)C(=O)C1=Cc1ccc(C(C)C)cc1 was run?
Its viability index is 0.475.

How did the viability index turn out when COc1ccc2nc(C)cc(Nc3ccc(Oc4ccc(Cl)cc4)c(Cl)c3)c2c1 was run?
Its viability index is 0.54.

With Cc1cc(C)cc(Nc2cc(C)nc3nc(C)nn23)c1 as the compound, how does the viability index read?
Its viability index is 1.12.

For COCCOC(=O)C1=C(C)NC2=C(C(=O)CC(c3ccc(OC)c(OC)c3)C2)C1c1cccc(Cl)c1Cl (centres undefined), which viability index is on record?
The viability index was 0.857.

How did the viability index turn out when O=C(NNc1ccccc1F)c1c(F)cccc1Cl was run?
The viability index was 1.05.

With Oc1ccc(-c2ccc(F)cc2)cc1CN1CCCCCC1 as the compound, how does the viability index read?
Its viability index is 0.47.

How did the viability index turn out when COC(=O)c1c(-c2c(Cl)cccc2Cl)noc1C=CNc1ccc(Cl)cc1 was run?
Its viability index is 1.

With CC(=O)N(C1=C(N(C)C)C(=O)c2ccccc2C1=O)c1cc(C)cc(C)c1 as the compound, how does the viability index read?
The viability index was 0.0811.

For CC(=O)Nc1ccc(S(=O)(=O)Nc2ccccc2[N+](=O)[O-])cc1, which viability index is on record?
The viability index was 0.935.

For N=C(NN=Cc1ccc([N+](=O)[O-])cc1)NN=Cc1ccc([N+](=O)[O-])cc1, which viability index is on record?
Its viability index is 0.785.

CCOC(=O)C1=C(C)NC2=C(C(=O)CC(c3ccc(OC)c(OC)c3)C2)C1c1cccc(Cl)c1Cl (centres undefined) was tested. Which viability index did it give?
Its viability index is 0.772.

With Cc1cc(N2CCC(C)CC2)nc2ccc(NC(=O)c3ccc([N+](=O)[O-])o3)cc12 as the compound, how does the viability index read?
Its viability index is 0.12.

For CN(C)c1cc[n+](CC(=O)c2cccs2)cc1, which viability index is on record?
Its viability index is 0.725.

For COc1ccc2ccccc2c1C1CC(=O)N2CN(Cc3ccco3)CSC2=C1C#N (centres undefined), which viability index is on record?
The viability index was 0.884.

With CC(=O)C1=C(O)C(=O)N(c2ccc(Br)cn2)C1c1ccccc1[N+](=O)[O-] (centres undefined) as the compound, how does the viability index read?
The viability index was 0.779.

CC(C)(C)c1ccc(NC(=O)CN2CCCCC2)cc1 was tested. Which viability index did it give?
Its viability index is 0.788.

O=C(C[n+]1cc(-c2ccc(Cl)cc2)n2c1CCC2)c1ccc(C2CCCCC2)cc1 was tested. Which viability index did it give?
Its viability index is 1.26.

COc1cc(OC)cc(C(=O)Nc2cc(C(=O)N3CCC(Cc4ccccc4)CC3)ccc2N2CC3CC(C2)c2cccc(=O)n2C3)c1 (centres undefined) was tested. Which viability index did it give?
Its viability index is 1.14.

Which viability index does the source give for Cc1[nH]c2ccccc2c1C=Cc1cc[n+](C)cc1 here?
Its viability index is 1.08.

How did the viability index turn out when CCc1ccc(C(=O)C[n+]2cc(-c3ccc(C)cc3)n3c2CCC3)cc1 was run?
The viability index was 0.978.

For COc1ccc2c(c1OC)C(=O)N(c1ncc(C)s1)C2, which viability index is on record?
The viability index was 0.694.

Which viability index does the source give for COc1ccccc1N(CN1C(=O)c2ccc(Br)cc2C1=O)C(C)=O here?
The viability index was 1.09.

How did the viability index turn out when CCN(CC)C(=O)COc1ccc(-c2nnc(N3CCCCC3)c3ccccc23)cc1 was run?
Its viability index is 1.28.

Which viability index does the source give for Cc1c(-c2ccc(Cl)cc2)[n+]2c(n1-c1ccccc1)SCCC2 here?
The viability index was 1.39.

COc1ccc(C2CC(=O)C3=C(C2)NC(C)=C(C(=O)OC2CCCC2)C3c2ccccc2)cc1 (centres undefined) was tested. Which viability index did it give?
Its viability index is 0.722.

COc1ccc(C(=O)C2CC2c2ccc(Cl)cc2)cc1 (centres undefined) was tested. Which viability index did it give?
Its viability index is 0.742.

With O=S(=O)(NCCNc1ncnc2scc(-c3ccccc3)c12)c1ccc(Cl)c(Cl)c1 as the compound, how does the viability index read?
The viability index was 0.554.

How did the viability index turn out when CCN1C(=Cc2ccc3ccccc3[n+]2CC)C=Cc2ccccc21 was run?
Its viability index is 0.348.

How did the viability index turn out when S=C(Nc1ccccc1)N1CCCN(c2nc3ccc(Cl)cc3s2)CC1 was run?
Its viability index is 0.747.

C(#Cc1ccccc1)C[N+]1(CCOc2ccccc2)CCCCC1 was tested. Which viability index did it give?
Its viability index is 0.706.

For CCCOC(=O)C1=C(C)NC2=C(C(=O)CC(c3ccc(Cl)cc3)C2)C1c1ccc(Cl)cc1 (centres undefined), which viability index is on record?
Its viability index is 0.71.

How did the viability index turn out when O=c1c(-c2ccc(Cl)cc2Cl)c(C(F)(F)F)oc2c(CN3CCCCC3)c(O)ccc12 was run?
Its viability index is 1.

Cc1ccnc(NS(=O)(=O)c2ccc(NC(=O)C(C)C)cc2)n1 was tested. Which viability index did it give?
Its viability index is 0.88.

For CC(=O)N(C1=C(N2CCOCC2)C(=O)c2ccccc2C1=O)c1cc(C)cc(C)c1, which viability index is on record?
Its viability index is 0.0695.

For CC(=O)N1CCC(N(C(=O)Nc2c(F)cccc2F)C(C)C)CC1, which viability index is on record?
The viability index was 0.988.

How did the viability index turn out when Cc1cccc(-c2ccc(NC(=O)C3CCN(Cc4cnc(C)nc4)CC3)cc2)c1 was run?
The viability index was 0.683.

With CC(=O)NC1=NN(C(C)=O)C(C)(c2ccc([N+](=O)[O-])cc2)S1 (centres undefined) as the compound, how does the viability index read?
The viability index was 0.586.

For CCN1C=CC(=Cc2cccc[n+]2C)c2ccccc21, which viability index is on record?
The viability index was 1.09.

How did the viability index turn out when O=C(NN1CCOCC1)c1ccc(Br)cc1 was run?
Its viability index is 0.951.

For CC1(C)Oc2ccc3ccc(=O)oc3c2CC1=NNC(N)=S, which viability index is on record?
The viability index was 0.717.

With CN(C)CCCn1c(N)c(-c2nc3ccccc3[nH]2)c2nc(C#N)c(C#N)nc21 as the compound, how does the viability index read?
Its viability index is 0.302.

With O=C1CC(c2ccccc2)Oc2ccc(F)cc21 (centres undefined) as the compound, how does the viability index read?
Its viability index is 0.826.

How did the viability index turn out when CC1=C(C(=O)OC2CCCCC2)C(c2ccc(Cl)c(Cl)c2)C2=C(CCCC2=O)N1 (centres undefined) was run?
Its viability index is 0.691.

Which viability index does the source give for COc1cc2c(cc1OC)C(CCCCCl)=NC(C)(C)C2 here?
The viability index was 0.821.

With O=C(CC(=O)N1CCOCC1)Nc1ccc2nc3n(c(=O)c2c1)CCCCC3 as the compound, how does the viability index read?
The viability index was 1.18.

With COc1nc(C)nc(NC(=O)NC(=O)c2c(OC)ccc([N+](=O)[O-])c2OC)n1 as the compound, how does the viability index read?
Its viability index is 0.455.

COc1cc(C=C2CCC(=Cc3cc(OC)c(OC)c(OC)c3)C2=O)cc(OC)c1OC was tested. Which viability index did it give?
Its viability index is 0.582.

Which viability index does the source give for Cc1noc(-c2ccc(O)cc2O)c1-c1ccc2c(c1)OCCO2 here?
Its viability index is 0.587.

For Cc1cc(NC(=O)c2ccc(S(=O)(=O)N(Cc3ccccc3)C(C)C)cc2)no1, which viability index is on record?
The viability index was 0.669.
